Assay results: patent US20210122795A1 (CITY OF HOPE, published 2021)

Biological target: T1, CTLA-4-Fc (recombinant bivalent CTLA-4 fused to the human IgG1 Fc) (human, UniProt P16410 36-161, Homodimer through the IgG1 Fc (bivalent); the Fc is left out of the letters.)
T1 construct: also called dimeric CTLA-4-Fc; CTLA-4 (in the SEC legends); not shown: human IgG1 Fc and any linker of the CTLA-4-Fc fusion
Assay: analytical size-exclusion chromatography of the mixture, relative absorbance at 230 nm
Description: The masked mLcn2 was characterized in vitro by size exclusion chromatography and SPR analysis (FIG. 3 C/D). Admixtures of the masked mLcn2 and a recombinant bivalent CTLA-4 (also fused to the human IgG1 Fc) were incubated and applied to an analytical column. In the absence of MMP9, the combination eluted at the same position as the individual components. However, incubation with MMP9 led to an earlier elution, indicating the formation of a heterodimeric complex. […] Similar results were obtained using SPR (FIG. 3C). In these studies, monomeric CTLA-4 was chemically tethered to the chip and the masked mLcn2, MMP-cleaved masked mLcn2 and the n-mLcn2 (no N-terminal fusion) was passed over the chip.

T1 sequence (P16410 36-161 limits assumed): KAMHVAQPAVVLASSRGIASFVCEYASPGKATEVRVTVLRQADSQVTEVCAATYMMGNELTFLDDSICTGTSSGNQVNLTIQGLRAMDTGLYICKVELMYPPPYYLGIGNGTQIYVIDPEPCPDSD

- binding result: no binding
B1: Mxx9 mLcn2-Fc (Pep16-Mxx9-mLCN2-IgG1, inactive MMP9 cleavage site) (Fc fusion)
chain: AGSCWSPLPFMCGGSVPGSGSSGSQDSTSDLIPAPPLSKVPLQQNFQDNQFHGKWYVVGLAGNRILRDDQHPMNMYATIYELKEDKSYNVTSVISSHKKCEYTIATFVPGSQPGEFTLGNIKSYGDKTSYLVRVVSTDYNQYAVVFFKLAEDNAEFFAITIYGRTKELASELKENFIRFSKSLGLPENHIVFPVPIDQCIDGSRSGGTSGGGSVPGSGSSGSTSGSGKSSEGSGQ[human IgG1 Fc and a few adjoining residues cut from this listing]
notes: also called MMP9-mutated masked mLcn2 control; masked mLcn2 with non-cleavable linker
